Source: PMC12040169 (PLOS Biology, 2025)
The list shows a part of the results.

System: T1, C. trachomatis L2/434/Bu expressing GFP (CTL2-GFP)
T1 construct: L2/434/Bu GFP intracellular growth in HeLa cells
Parameters: species or system HeLa; C. trachomatis total inclusion area by high-content imaging, normalised to DMSO
Details: total inclusion area; 28.5 h, 10 µM; inhibitor
Summary of the method: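 Host cell viability was gauged from Hoechst-stained nuclei counts, while chlamydial growth was taken from total inclusion area and inclusion number per well. Cells were fixed and imaged by high-content microscopy once bulk GFP and resorufin fluorescence had been measured.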

| SMILES | % of control remaining |
| --- | --- |
| CN1CCN(C(=O)c2n[nH]c3c2CCCC3)C(Cc2ccc(-c3cccs3)cc2)C1=O (centres unmarked) [CBK285812] | 112.891 |
| CCSc1nnc(-c2cccc(C)c2)n1CC1CCCO1 (centres unmarked) [CBK085413] | 49.9754 |
| Cc1ccc(S(=O)(=O)Nc2c(C(=O)N3CCN(C)CC3)[nH]c3ccccc23)cc1[N+](=O)[O-] [CBK050060] | 108.254 |
| O=C(NC1CC1)c1ccc(-n2cccn2)c(C#Cc2ccccn2)c1 [CBK282272] | 97.5992 |
| O=C(Cc1ccc(F)cc1)N1CCn2c(nnc2C2CC2)C1 [CBK283688] | 99.5862 |
| CC1(C)COC(=O)N1C1CCN(C(=O)c2ccno2)CC1 [CBK044383] | 92.7431 |
| CC(C)(C)c1csc(NC(=O)C2CC(=O)N(C3CCCC3)C2)n1 (centres unmarked) [CBK175544] | 108.4 |
| Cc1ccc(C(=O)NC(Cc2cccs2)c2ccccn2)c(=O)[nH]1 (centres unmarked) [CBK285210] | 77.7001 |
| Cn1nnc2cc(C(=O)N(CCO)c3ccccc3)ccc21 [CBK266522] | 122.587 |
| CSCCCN1CCn2nc(CNc3cnccn3)cc2C1 [CBK307136] | 113.492 |
| CCC(CN1CCCC1)NC(=O)Cc1ccc(OC)c(C)c1 (centres unmarked) [CBK282752] | 49.3597 |
| CN1CCN(CCCNC(=O)N2CCN(c3ccc(F)cc3)CC2)CC1 [CBK156386] | 96.49 |
| Cc1ncsc1C(=O)N1CCCC(c2cc3cnccc3[nH]2)C1 (centres unmarked) [CBK283461] | 100.522 |
| COc1cc(/C=N/NC(=O)CC#N)ccc1OCc1ccccc1Cl [CBK263932] | 106.457 |
| Cc1cc(C)n(CCCC(=O)N2CCc3ncc(Cl)cc3C2)n1 [CBK284852] | 77.7434 |
| Cc1cc(C)n(CC2CCCN2C(=O)CCCc2ccccn2)n1 (centres unmarked) [CBK305920] | 121.049 |
| O=C(O)C(Cc1c[nH]c2ccccc12)N1Cc2ccccc2C1=O (centres unmarked) [CBK287056] | 88.9516 |
| O=C(CSc1nnc(-c2ccccc2)n1C1CCCCC1)Nc1ccc(Cl)cc1Cl [CBK267424] | 97.1435 |
| CC(C)C(=O)NC(NC(=S)Nc1sc2c(c1C(N)=O)CCCC2)C(Cl)(Cl)Cl (centres unmarked) [CBK261050] | 86.7316 |
| CC(=O)NCCSc1cncc(NC(C)C)n1 [CBK105291] | 99.0983 |
| O=C(O)CCC(C(=O)O)N1C(=O)/C(=C\C(Cl)=C/c2ccc([N+](=O)[O-])cc2)SC1=S (centres unmarked) [CBK261011] | 103.495 |
| O=C(CN(c1cccc(Cl)c1)S(=O)(=O)c1ccc(Cl)cc1)NCc1ccco1 [CBK265356] | 97.0114 |
| COc1ccc([C@@]23CC[C@@H](NC(=O)Nc4ccnc5ccccc45)C[C@@H]2N(C)CC3)cc1OC [CBK045699] | 100.591 |
| CC(=O)NCCN(Cc1ccc(S(=O)(=O)N2CCOC2=O)cc1)Cc1ccoc1 [CBK024460] | 93.6918 |
| CCOC(=O)c1ccc(NC(=S)NC(=O)c2ccc(C)c(C)c2)cc1 [CBK264004] | 107.441 |
| Cc1csc2c(C3CCN(C(=O)c4ccncc4)CC3)nc(C)n12 [CBK285243] | 74.2635 |

| SMILES | % of control remaining |
| --- | --- |
| O=C(NCCCOc1ccccc1)N1CCN(S(=O)(=O)c2ccc(C(F)(F)F)cc2)CC1 [CBK296686] | 69.593 |
| Cc1c(S(=O)(=O)NC(C)CCCC(C)(C)O)sc2ccc(Cl)cc12 (centres unmarked) [CBK062467] | 88.4748 |
| Cc1cc(Cl)ccc1OCC(=O)NC(=S)Nc1cccc(-c2nc3ccccc3s2)c1 [CBK264802] | 116.426 |
| CN1CCC(C(=O)NC(=O)NC2CCCCC2)CC1 [CBK034825] | 82.389 |
| CC(=O)c1ccc(-c2cc(N3CCN(C(=O)c4ccco4)CC3)ncn2)s1 [CBK036999] | 101.016 |
| O=C(NC(=O)C1CCNCC1)Nc1ccc(F)cc1F [CBK034793] | 78.39 |
| COc1ccc(CN2C(=O)CC3(C2=O)C(=O)N(Cc2ccccc2)c2ccc(F)cc23)cc1OC (centres unmarked) [CBK075174] | 97.4084 |
| COC(=O)Cc1c(O)nn(C)c1Cc1cccc(C(F)(F)F)c1 [CBK006608] | 88.8958 |
| COc1cc(OC)cc(C(=O)N2CCC3(CC2)CC(=O)c2ccc(OCCN(C)C)cc2O3)c1 [CBK169008T] | 47.7157 |
| O=C(Nc1ccc(OCc2ccccc2)cc1)OCC1CN(Cc2ccccc2)CCO1 (centres unmarked) [CBK074792] | 88.5277 |
| COc1ccccc1C1CCCN1Cc1c(C)nc2ccccn12 (centres unmarked) [CBK281995] | 96.6753 |
| COc1cccc2c3c([nH]c12)C1(CCCN(C/C=C\c2ccccc2)C1)NCC3 (centres unmarked) [CBK040138] | 57.6548 |
| CCc1cccc2c(C=C3C(=O)N(CC(=O)O)C(=O)c4ccccc43)c[nH]c12 [CBK295153] | 100.565 |
| CC(C)(C)C(=O)N1CCC(c2nnc3n2CCCCC3)CC1 [CBK285311] | 69.5635 |
| CN(C)CCN(Cc1cc2cc3c(cc2[nH]c1=O)OCO3)C(=S)Nc1ccc(F)cc1 [CBK135186] | 86.2668 |
| O=C(Nc1cccc(Cl)c1)Nc1ccccc1NC(=O)Nc1cccc(Cl)c1 [CBK267624] | 96.9216 |
| C/C(CCS(=O)(=O)c1ccc(Br)cc1)=N\NC(N)=S [CBK261370] | 70.5781 |
| CC(C)C[C@H]1NC(=O)C2(C/C=C/C[C@@H]3COCC[C@@H]3NC1=O)CCN(C(=O)[C@@H](N)Cc1c[nH]c3ccccc13)CC2 [CBK292200] | 99.6175 |
| CCOC(=O)N1CCN(CCCCc2ccc(F)cc2)CC1 [CBK025002C] | 66.5987 |
| Cc1ccc(OCc2nc(C#N)c(NCCCN3CCOCC3)o2)cc1 [CBK266423] | 100.525 |
| O=C(Nc1cc(Cl)ccc1Cl)c1ncn[nH]1 [CBK028834] | 49.6811 |
| FC(F)(F)c1cc(-c2cn3ccnc3c(NCCc3cccnc3)n2)cc(C(F)(F)F)c1 [CBK066146] | 100.153 |
| O=C(O)Cc1ccc(NC(=O)CN2C(=O)c3ccccc3C2=O)cc1 [CBK268562] | 128.952 |
| CCCCNC(=O)NC(=O)C1CCN(CCCOc2ccccc2)CC1 [CBK035198] | 60.7186 |
| Cc1ccc(-n2c(SCC(=O)Nc3ccc(C)c([N+](=O)[O-])c3)nnc2-c2ccccc2O)c(C)c1 [CBK268769] | 52.5225 |
| O=C(NC1Cc2ccccc2C1)c1cncnc1 [CBK200262] | 92.5286 |

| SMILES | % of control remaining |
| --- | --- |
| COc1ccc(N2CCN(CC(=O)N3c4ccccc4Sc4ccccc43)CC2)cc1 [CBK269398] | 96.4471 |
| NC(=O)c1cc([N+](=O)[O-])ccc1NCCN1C(=O)c2ccc(C(=O)O)cc2C1=O [CBK264444] | 108.385 |
| Cn1c(=O)[nH]c(=O)c2c1nc(CN1CCOCC1)n2Cc1ccc(F)cc1 [CBK270040] | 89.059 |
| CC(C)c1noc([C@@H]2C[C@H](NS(=O)(=O)c3ccc(F)cc3)CN2C)n1 [CBK288864] | 103.252 |
| CC(C)(C)C1CCc2c(sc(NC(=O)CCC(=O)O)c2C(=O)Nc2ccccc2C(F)(F)F)C1 (centres unmarked) [CBK264143] | 126.094 |
| CCN(CCc1nc2cc(OC)ccc2[nH]1)C(=O)c1ccc(=O)n(C)n1 [CBK307712] | 95.2004 |
| Cc1c(CNCCN2CCN(C)CC2c2ccccc2)cnn1C (centres unmarked) [CBK304056] | 50.9611 |
| O=C(OCc1ccccc1)N1CCC(C2OCc3cc(-c4ccc(C(=O)N5CCCC5)cc4)ccc3O2)CC1 (centres unmarked) [CBK153260] | 31.9439 |
| Cc1ccc(Nc2cc(-c3cc4ccccc4o3)ncn2)cc1NS(C)(=O)=O [CBK091148] | 53.8246 |
| Cc1nnc(N2CCn3nc(C(O)Cc4ccccc4)cc3C2)s1 (centres unmarked) [CBK307152] | 82.0063 |
| Cc1cc(SCC2=NNC(=O)C2)c(Cl)cc1Cl [CBK067769] | 95.3756 |
| Oc1ccc(SCCCCCN2CCCCC2)cc1 [CBK261488] | 81.5406 |
| COc1ccccc1-c1nc(SCc2ccc(C(=O)O)cc2)n[nH]1 [CBK266631] | 118.446 |
| CCN(CCO)C(=O)c1cccc(-c2cnn(C(F)F)c2C)c1 [CBK307519] | 43.8718 |
| NC(=O)C1(Cc2ccccc2-c2cccc(F)c2)CCN(C(=O)c2cccc(F)c2)CC1 [CBK285693] | 105.131 |
| Cc1cccc(CCNC(=O)CC2CCN(C(=O)CC3CCCCC3)CC2)c1 [CBK285964] | 92.9354 |
| O=c1c(C(F)(F)F)cccn1Cc1ccccc1 [CBK023620] | 109.136 |
| CCCOC1CCCN(C(=O)c2cncc(F)c2)C1 (centres unmarked) [CBK304623] | 44.8683 |
| COc1ccc2oc(C(=O)NC(C)c3cn(C)nc3C)cc2c1 (centres unmarked) [CBK281573] | 92.9862 |
| O=C(c1ccc2c(c1)C(=O)N(N1C(=O)c3ccccc3C1=O)C2=O)c1ccc2c(c1)C(=O)N(N1C(=O)c3ccccc3C1=O)C2=O [CBK261182] | 93.0895 |
| COCCN(C)c1nc2c(c(=O)[nH]1)Cc1ccccc1OC2 [CBK306737] | 40.4172 |
| COc1cc(-c2nc(NC(=O)C(C)C)cc3ccccc23)cc(OC)c1OC [CBK085741] | 80.9292 |
| Cn1nc(C(C)(C)C)c2cc(C(=O)N3CCn4nccc43)cnc21 [CBK305466] | 47.0737 |
| COc1ccc(C(=O)C(C)OC(=O)c2ccc3ccccc3n2)cc1 (centres unmarked) [CBK111937] | 100.969 |
| O=C(NCCNC(=O)c1ccccn1)c1cccc(F)c1 [CBK269613] | 101.056 |
